Measurements: the antibiotic and cytotoxicity screens of Wong et al. (2023)
The list shows a part of the results.

What was measured:
[1] = system: HSkMC (human skeletal muscle cells); assay: cytotoxicity call (relative viability < 0.9); settings: 10 µM
[2] = system: HepG2; assay: cytotoxicity call (relative viability < 0.9); settings: 10 µM
[3] = system: S. aureus RN4220; assay: growth inhibition call (relative growth <= 0.2); settings: 50 µM

SMILES | cytotoxicity call [1] | cytotoxicity call [2] | growth inhibition call [3]
Cc1noc(C)c1S(=O)(=O)N(C)C[C@@H]1OCCCC[C@@H](C)Oc2ccc(NC(=O)Nc3ccc(F)cc3)cc2C(=O)N([C@@H](C)CO)C[C@H]1C | inactive | inactive | inactive
CC(C)NC(=O)Nc1ccc2c(c1)C(=O)N([C@H](C)CO)C[C@H](C)[C@@H](CN(C)Cc1ccc(Oc3ccccc3)cc1)O2 | inactive | inactive | inactive
C[C@@H]1CN([C@@H](C)CO)C(=O)c2cc(NC(=O)Nc3ccc(F)cc3)ccc2O[C@@H](C)CCCCO[C@H]1CN(C)Cc1ccccc1 | inactive | active | inactive
Cc1noc(C)c1NC(=O)Nc1ccc2c(c1)C(=O)N([C@H](C)CO)C[C@@H](C)[C@@H](CN(C)S(=O)(=O)c1cccs1)OCCCC[C@H](C)O2 | inactive | inactive | inactive
CC(C)CC#Cc1ccc2c(c1)O[C@H](CN(C)C(=O)c1ccncc1)[C@@H](C)CN([C@H](C)CO)S2(=O)=O | inactive | inactive | inactive
CC(C)(N)C(=O)N[C@H](COCc1ccccc1)C(=O)N1CCC2(CC1)CN(S(C)(=O)=O)c1ccccc12 | active | inactive | inactive
C[C@H](CO)N1C[C@H](C)[C@H](CN(C)C(=O)NC2CCCCC2)OCCCC[C@H](C)Oc2ccc(NC(=O)Cc3ccccc3)cc2C1=O | inactive | inactive | inactive
CO[C@H](CN(C)C(=O)c1ccccc1F)[C@H](C)CN([C@@H](C)CO)S(=O)(=O)c1ccc(Cl)cc1 | inactive | inactive | inactive
CN(C)C(=O)CN1CCC2(CC1)O[C@H](C(=O)NCc1ccccn1)Cn1ccnc12 | inactive | inactive | inactive
Cc1noc(C)c1NC(=O)N(C)C[C@H]1OCCCC[C@@H](C)Oc2ccc(NC(=O)Nc3ccc(C(F)(F)F)cc3)cc2C(=O)N([C@@H](C)CO)C[C@H]1C | inactive | inactive | inactive
COc1ccc(S(=O)(=O)N(C)C[C@@H]2Oc3ccc(NC(=O)CCC(F)(F)F)cc3CC(=O)N([C@@H](C)CO)C[C@H]2C)cc1 | inactive | inactive | inactive
Cc1noc(C)c1NC(=O)Nc1ccc2c(c1)C(=O)N([C@H](C)CO)C[C@H](C)[C@H](CN(C)S(=O)(=O)c1cccs1)OCCCC[C@@H](C)O2 | inactive | inactive | inactive
C[C@H]1C[C@@H](OC2[C@@H](O)[C@H](O)[C@H](O)[C@H](O)[C@@H]2O)[C@@H](N)C[C@@H]1NC(=N)C(=O)O (stereo not given in full) | inactive | inactive | inactive
CC(=O)N1[C@@H](CO)[C@H](c2ccccc2)C12CN(C(=O)CN1CCOCC1)C2 | inactive | inactive | inactive
COc1ccccc1S(=O)(=O)N(C)C[C@@H]1OCc2cn(nn2)CCCC(=O)N([C@@H](C)CO)C[C@H]1C | inactive | inactive | inactive
COc1cccc(S(=O)(=O)N(C)C[C@H]2OCc3cn(nn3)CCCC(=O)N([C@H](C)CO)C[C@@H]2C)c1 | inactive | inactive | inactive
CSCC[C@@H](N)C(=O)O | inactive | inactive | inactive
C[C@H](CO)N1C[C@H](C)[C@@H](CN(C)CC2CCCCC2)OCCCC[C@H](C)Oc2ccc(NC(=O)Nc3ccc(C(F)(F)F)cc3)cc2C1=O | active | active | inactive
COc1ccc(C=CC(=O)Nc2ccccc2C(=O)O)cc1OC | inactive | inactive | inactive
Cc1ccc(S(=O)(=O)N(C)C[C@@H]2OCCCC[C@@H](C)Oc3ccc(NC(=O)CCC(F)(F)F)cc3C(=O)N([C@H](C)CO)C[C@@H]2C)cc1 | inactive | inactive | inactive
C[C@H]1CN([C@@H](C)CO)C(=O)CCCn2cc(nn2)CO[C@H]1CN(C)C(=O)CCCN(C)C | inactive | inactive | inactive
C[C@H](CO)N1C[C@H](C)[C@H](CN(C)C(=O)c2ccccc2)OCCCC[C@H](C)Oc2ccc(NC(=O)Nc3ccc(F)cc3)cc2C1=O | inactive | inactive | inactive
CNC[C@@H]1OCCCC[C@@H](C)Oc2ccc(NC(=O)CCCN(C)C)cc2C(=O)N([C@@H](C)CO)C[C@H]1C | inactive | inactive | inactive
C[C@@H]1CN([C@H](C)CO)C(=O)c2cc(NC(=O)Cn3cnnn3)ccc2O[C@@H]1CN(C)Cc1ccccc1 | inactive | inactive | inactive
Cc1noc(C)c1C(=O)OCC(=O)NC1CC1 | inactive | inactive | inactive
